The values that follow come from the supplement of paper PMC9135407.

The structures appear in SMILES notation. Several values for one entry are separate records, joined by “and”; a condition that tells them apart may be missing. Equal values may be shown once. Where a name gives a salt, the structure may show the parent alone. Among all 5,800 compounds or so, about 620 (11%) showed activity.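 Rule for the calls: active = score above a cut-off or among the top three wells of a plate; in these data no inactive exceeds 0.85.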 This is a selection; strong and weak results do not stand in their true shares. Where only a bound is given, the exact number is not on record here.

The test system of this assay is primary human hepatic stellate cells (donor 1). Put plainly: scaled lipid accumulation score (0 = DMSO-like, 1 = nortriptyline-like); higher = stronger HSC inactivation (lipid re-accumulation), active = hit call of the paper. Conditions: 48 h.
Setting [1] is: library stock concentration: 10 mM.
The mark [2] stands for this setting: library stock concentration: 1 mM.
The mark [3] stands for this setting: library stock concentration: 3.33 mM.

`S=C=Nc1ccc(N=C=S)cc1`: under setting [1], the “scaled lipid accumulation score” value was inactive: ≤ 0.

In the case of `O=C(O)COc1cccc(-c2ocnc2-c2nc(-c3ccccc3)c(-c3ccccc3)o2)c1`, the “scaled lipid accumulation score” value under setting [1] was inactive: ≤ -0.006.

For `C[C@@H](CN1CCC(n2c(=O)[nH]c3cc(Cl)ccc32)CC1)NC(=O)c1ccc2ccccc2c1`, the “scaled lipid accumulation score” value under setting [2] was inactive: 0.02.

As for `C=CC(=O)Nc1cc2c(Nc3ccc(F)c(Cl)c3)ncnc2cc1C#CC(C)(C)N1CCN(C)CC1`, the “scaled lipid accumulation score” value (library stock concentration: 400 uM) was active: 0.879.

As to `CNCC[C@H](Oc1ccc(C(F)(F)F)cc1)c1ccccc1` [S-(+)-Fluoxetine hydrochloride], under setting [1], the “scaled lipid accumulation score” value is inactive: 0.403.

On to `Cc1nc(-c2ccccc2)c(-c2ccncc2)o1`, for which the “scaled lipid accumulation score” value under setting [3] is inactive: ≤ 0.

With `CCCCC(=O)O[C@]1(C(=O)CO)[C@@H](C)C[C@H]2[C@@H]3CCC4=CC(=O)C=C[C@]4(C)[C@@]3(F)[C@@H](O)C[C@@]21C` [Betamethasone valerate], the “scaled lipid accumulation score” value under setting [1] was inactive: ≤ 0.

For the compound `CC(=O)OCC(=O)[C@@]1(O)CC[C@H]2[C@@H]3CCC4=CC(=O)C=C[C@]4(C)[C@@]3(F)[C@@H](O)C[C@@]21C` [Isoflupredone acetate], the “scaled lipid accumulation score” value was inactive: ≤ 0.

In the case of `COc1cc(C(=O)N2CCOCC2)cc(OC)c1OC` [Trimetozine], under “library stock concentration: 7.1 mM”, the “scaled lipid accumulation score” value is inactive: ≤ 0.

Consider `CC(=O)OCC(=O)[C@@]1(O)CC[C@H]2[C@@H]3CCC4=CC(=O)CC[C@]4(C)[C@H]3C(=O)C[C@@]21C`, for which the “scaled lipid accumulation score” value under setting [1] was inactive: ≤ 0.

Turning to `CC(=O)OCC(=O)[C@@]1(O)CC[C@H]2[C@@H]3CCC4=CC(=O)CC[C@]4(C)[C@H]3C(=O)C[C@@]21C` [Cortisone acetate], the “scaled lipid accumulation score” value under setting [3] is inactive: ≤ 0; the “scaled lipid accumulation score” value (library stock concentration: 5 mM) was inactive: ≤ -0.001; the “scaled lipid accumulation score” value under setting [1] was inactive: 0.025 and inactive: ≤ 0.

With `CC(=O)OCC(=O)[C@@]1(O)CC[C@H]2[C@@H]3CCC4=CC(=O)CC[C@]4(C)[C@H]3C(=O)C[C@@]21C` [Cortisone 21-acetate], under setting [1], the “scaled lipid accumulation score” value was inactive: 0.199.

`FC(F)(F)c1ccc(/C=C/c2nc(COc3ccc(CCCCn4ccnn4)cc3)co2)cc1` [Mubritinib (TAK 165)]: the “scaled lipid accumulation score” value was inactive: ≤ 0 under setting [3] and inactive: ≤ 0 under setting [1].

Regarding `FC(F)(F)c1ccc(/C=C/c2nc(COc3ccc(CCCCn4ccnn4)cc3)co2)cc1`, the “scaled lipid accumulation score” value under setting [1] is inactive: 0.003.

Turning to `O=C1c2ccccc2C(=O)c2c(NCCc3ccc(O)cc3)ccc(NCCc3ccc(O)cc3)c21`, the “scaled lipid accumulation score” value under setting [1] was inactive: 0.079.

As for `CC(Oc1cc(-c2cnn(C3CCNCC3)c2)cnc1N)c1c(Cl)ccc(F)c1Cl` [(S)-crizotinib], the “scaled lipid accumulation score” value is inactive: 0.504 under setting [3] and inactive: 0.396 under setting [1].

Take `CCCCC/C=C\C/C=C\C/C=C\CCCCC(=O)OC` [.gamma.-Linolenic Acid methyl ester]: the “scaled lipid accumulation score” value under setting [2] was inactive: ≤ 0.

Consider `O=C1c2c(O)cc(O)cc2OC(c2ccc(O)c(O)c2)C1O` (configuration not stated) [(?)-Taxifolin], for which the “scaled lipid accumulation score” value under setting [1] is inactive: ≤ 0.

On to `O=C1c2c(O)cc(O)cc2OC(c2ccc(O)c(O)c2)C1O` (configuration not stated) [Taxifolin (Dihydroquercetin)], for which the “scaled lipid accumulation score” value runs as follows: under setting [3], inactive: 0.018; under setting [1], inactive: ≤ 0.

As to `O=C1c2c(O)cc(O)cc2O[C@H](c2ccc(O)c(O)c2)[C@H]1O`, the “scaled lipid accumulation score” value under setting [1] is inactive: ≤ 0.

On to `COc1ccc(Nc2nccc(NCCO)n2)cc1` [Cardiogenol C (hydrochloride)], for which the “scaled lipid accumulation score” value under setting [2] is inactive: ≤ 0.

As for `COc1ccc(Nc2nccc(NCCO)n2)cc1` [Cardiogenol C hydrochloride], the “scaled lipid accumulation score” value under setting [1] was inactive: ≤ 0.

Consider `CN(C)CCCN1c2ccccc2Sc2ccccc21.Cl` [Promazine hydrochloride], for which the “scaled lipid accumulation score” value under setting [1] is active: 0.923.

In the case of `O=C(O)c1cc(O)c2c(c1)[C@H]([C@H]1c3cc(C(=O)O)cc(O)c3C(=O)c3c(O[C@@H]4O[C@H](CO)[C@@H](O)[C@H](O)[C@H]4O)cccc31)c1cccc(O[C@@H]3O[C@H](CO)[C@@H](O)[C@H](O)[C@H]3O)c1C2=O` [Sennoside a], the “scaled lipid accumulation score” value was inactive: ≤ 0 (library stock concentration: 2.3 mM) and inactive: ≤ -0.027 under setting [1].

Consider `CC(=O)Oc1cc(C(C)C)c(OCCN(C)C)cc1C` [Moxisylyte hydrochloride], for which the “scaled lipid accumulation score” value under setting [1] was inactive: ≤ -0.055.

Turning to `CC(=O)Oc1cc(C(C)C)c(OCCN(C)C)cc1C` [Moxisylyte hydrochoride], the “scaled lipid accumulation score” value was inactive: ≤ 0.

Regarding `Br.NC(=O)C(c1ccccc1)(c1ccccc1)[C@@H]1CCN(CCc2ccc3c(c2)CCO3)C1` [Darifenacin HBr], the “scaled lipid accumulation score” value under setting [1] is active: 1.03.

As for `Cc1ccc(C(=O)Nc2ccc(CN3CCN(C)CC3)c(C(F)(F)F)c2)cc1C#Cc1cnc2cccnn12`, the “scaled lipid accumulation score” value under setting [3] is active: 1.06.

With `CC(c1cc2ccccc2s1)N(O)C(N)=O` (configuration not stated) [Zileuton], the “scaled lipid accumulation score” value is inactive: ≤ 0 under setting [3] and inactive: ≤ 0 under setting [1].

Take `CC(c1cc2ccccc2s1)N(O)C(N)=O` (configuration not stated): the “scaled lipid accumulation score” value under setting [1] was inactive: ≤ 0.

For the compound `Nc1ccc(-c2cccc3c(=O)cc(N4CCOCC4)oc23)cc1`, the “scaled lipid accumulation score” value under setting [1] was inactive: ≤ -0.001.

Consider `CC[N+](C)(CC)CC(=O)Nc1c(C)cccc1C` [N-Methyllidocaine iodide], for which, under setting [1], the “scaled lipid accumulation score” value is inactive: ≤ -0.006.

`CC1=C(C(=O)OC2CCCCC2)C(c2ccc([N+](=O)[O-])cc2)C2=C(CC(C)(C)CC2=O)N1` (configuration not stated): under setting [3], the “scaled lipid accumulation score” value is inactive: 0.763.

For `C[C@@H]1C(=O)O[C@H]2C[C@@]34[C@H]5C[C@@H](C(C)(C)C)[C@]36[C@@H](OC(=O)[C@@H]6O)O[C@@]4(C(=O)O5)[C@]21O` [Ginkgolide A], the “scaled lipid accumulation score” value is inactive: 0.016. The “scaled lipid accumulation score” value under setting [3] is inactive: ≤ 0. Under setting [1], the “scaled lipid accumulation score” value is inactive: 0.034.

As for `C[C@@H]1C(=O)O[C@H]2C[C@@]34[C@H]5C[C@@H](C(C)(C)C)[C@]36[C@@H](OC(=O)[C@@H]6O)O[C@@]4(C(=O)O5)[C@]21O` [Ginkgolide a], the “scaled lipid accumulation score” value is inactive: ≤ -0.006 (library stock concentration: 4.9 mM) and inactive: 0.025 under setting [1].

Consider `O=C(CCSCc1ccco1)NNC(=O)N1Cc2ccccc2Oc2ccc(Cl)cc21`, for which the “scaled lipid accumulation score” value under setting [1] was inactive: ≤ 0.

In the case of `CC1=C(/C=C/C(C)=C/C=C/C(C)=C/C(=O)Nc2ccc(O)cc2)C(C)(C)CCC1` [Retinoic acid p-hydroxyanilide], under setting [1], the “scaled lipid accumulation score” value is inactive: ≤ -0.025.

For `CC1=C(/C=C/C(C)=C/C=C/C(C)=C/C(=O)Nc2ccc(O)cc2)C(C)(C)CCC1` [Fenretinide], the “scaled lipid accumulation score” value by setting is: (library stock concentration: 5.1 mM) inactive: ≤ -0.006; under setting [1], inactive: 0.046.

With `NC(=O)c1ncn([C@@H]2O[C@H](CO)[C@@H](O)[C@H]2O)c1N`, the “scaled lipid accumulation score” value under setting [1] is inactive: ≤ 0.

`NC(=O)c1ncn([C@@H]2O[C@H](CO)[C@@H](O)[C@H]2O)c1N` [Acadesine]: the “scaled lipid accumulation score” value is inactive: ≤ 0 under setting [3] and inactive: ≤ 0 under setting [1].
